Laboratory results as given in PubChem BioAssay AID1508623 (National Center for Advancing Translational Sciences (NCATS), 2021).
Out of some 48,000 compounds screened, about 450 (0.94%) were called active. About 19% were inconclusive and are not listed. Calls follow the shape of the dose curve; as a rule, active = well fitted inhibition curve with a large enough effect; inconclusive = small, poorly fitted or top-dose-only effect; inactive = no such curve, though single readings can be large or run the other way. The list shows a part of the results.

Experiment: Primary qHTS for Identification of Small Molecule Inhibitors of Huntingtin Promoter Activity; also: nearly all actives have a fitted effect of over 50% in size
Settings: HEK293 HTT promoter firefly luciferase reporter (activity 0% = vehicle and -100% = no light), 24 h; series mostly up to 57.5 µM; activity change, negative = inhibition: at the top concentration
In short: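 HEK293 luciferase promoter-reporter cells (2,500/well) plated 24 h, then compounds added at up to 57.5 uM final for 24 h at 37 °C. Firefly luminescence by Dual-Glo, normalized to vehicle (0%) and zero RLU (-100%).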

SMILES | activity change, negative = inhibition
CCn1cc(C(=O)NCCc2ccc(C)cc2)c(=O)c2cc(S(=O)(=O)N3CCCCC3)ccc21 | inactive: -2.43%
O=C(Cn1c(=O)n(-c2ccc(Cl)cc2)c(=O)c2oc3ccccc3c21)Nc1ccccc1 | inactive: -24.5%
CC1CCN(c2ncnc3c2nnn3C)CC1 | inactive: 1.09%
O=C(c1ccco1)N1CCN(c2nc3c(Cl)cccc3s2)CC1 | inactive: -2.29%
COc1cccc(C(=O)Nc2ccccc2-c2nnc(-c3cc(OC)ccc3Br)o2)c1 | inactive: -10.8%
O=C(Cc1ccc(Cl)cc1)NCC(c1cccs1)S(=O)(=O)c1ccc(F)cc1 (configuration not stated) | inactive: -28.9%
Cn1cnc(S(=O)(=O)N2CCC(C(=O)NCc3ccc(F)cc3)CC2)c1 | inactive: -10.1%
Cc1nn2c(=O)cc(COC(=O)c3cccc(NC(=O)c4ccc(C(C)(C)C)cc4)c3)nc2s1 | inactive: -13.6%
COc1ccc(C(=O)CCC(=O)Nc2ccc(OC)c(Cl)c2)cc1 | inactive: -0.374%
COc1ccc(C2=CC(c3cccc(C)c3)n3nnnc3N2)cc1 (configuration not stated) | inactive: -21.3%
CCOC(=O)c1c(C)oc2nc(C)nc(NCCc3ccc(SC)cc3)c12 | inactive: 3.98%
CCN(CC)S(=O)(=O)c1ccc2c(c1)N(CC(=O)Nc1ccc(C)cc1C)C(=O)C1CCCN21 (configuration not stated) | inactive: -17.5%
CC(C)NC(=O)c1ccccc1NC(=O)c1nsc2ccccc12 | inactive: 14.3%
CCOc1ccc2nc(N3CCCC(C(=O)Nc4cccc(Cl)c4C)C3)sc2c1 (configuration not stated) | inactive: 63%
CCc1cc2c(cc3c(=O)n(CC(=O)N4CCCCC4)ncn32)s1 | inactive: 1.9%
CCCCN(CCCC)CCNC(=O)c1cc(-c2cccnc2)nc2ccc(S(=O)(=O)N3CCC(C)CC3)cc12 | inactive: 3.27%
CCCCn1cc(S(=O)(=O)c2ccc(F)cc2)c(=O)c2ccccc21 | inactive: -23%
COc1ccccc1CNC(=O)c1ccc(-c2nc(CS(=O)c3ccccc3)c(C)o2)cc1 (configuration not stated) | inactive: -22%
N#CC(=C(O)c1ccc(Cl)cc1Cl)c1nc2cc(Cl)ccc2c(=O)[nH]1 | inactive: -1.75%
Cc1ccc(Cl)cc1NC(=O)CN1C(=O)COc2ccc(S(=O)(=O)N3CCOCC3)cc21 | inactive: -16.8%
Cc1cnc2c(c1SCC(=O)Nc1ccc(F)cc1F)c(=O)n(C)c(=O)n2C | inactive: -14.1%
COc1ccc(Cn2c(SCC(N)=O)nc3c(sc4ccccc43)c2=O)cc1 | inactive: 10.5%
Cc1cc(F)ccc1NC(=O)C1CCCN(S(=O)(=O)c2ccc3c(c2)CCCC(=O)N3)C1 (configuration not stated) | inactive: -32%
COc1ccc(S(=O)(=O)c2c(Nc3ccc(C)cc3)sc(C(=O)c3ccc4c(c3)OCO4)c2N)cc1 | inactive: -30%
CN(C)c1ccc(CN(CC2CCCO2)C(=O)c2ccc(Br)cc2)cc1 (configuration not stated) | inactive: -17.3%

SMILES | activity change, negative = inhibition
Cc1ccc2[nH]c3c(=O)n(CC(=O)N4CCN(c5cccc(C(F)(F)F)c5)CC4)ncc3c2c1 | inactive: 4.61%
COc1cccc(CNC(=O)CN2C(=O)CSc3c2c(C)nn3-c2ccccc2)c1 | inactive: -21.9%
Cc1ccc(-n2c(=O)c3ccc(C(=O)NCc4ccccc4Cl)cc3n(CC(=O)Nc3cccc(F)c3)c2=O)cc1 | inactive: -13.1%
Cc1ccc2[nH]c(CSc3nnc(COc4ccccc4C)n3C)cc(=O)c2c1 | inactive: -27.7%
O=C(COCc1cc(-c2cccs2)on1)Nc1ccc(OC(F)(F)F)cc1 | inactive: -1.31%
Cc1cc2c(cc1C)NC(CC(=O)Nc1ccccc1SC(F)(F)F)C(=O)N2 (configuration not stated) | inactive: -5.96%
Cc1ccc(S(=O)(=O)c2nc(-c3ccco3)oc2SCC(C)C)cc1 | inactive: -29.8%
COc1cc(OC)c(NC(=O)Cn2cnc3sc(C)c(S(=O)(=O)N4CCN(C)CC4)c3c2=O)cc1Cl | inactive: -13.4%
COc1ccc2ncc3c(-c4ccc(C)c(C)c4)nn(CC(=O)NC4CCCCC4)c3c2c1 | inactive: -1.95%
CCc1ccccc1NC(=O)CN1C(=O)c2cccnc2Oc2ccc(Cl)cc21 | inactive: -15.7%
CCOc1ccc(Br)cc1CNCCSc1nnnn1-c1ccccc1 | inactive: -16.1%
CCc1ccc(NC(=O)c2nn(-c3ccc(C)cc3)c(=O)n(C)c2=O)cc1 | inactive: -13.1%
COC(=O)NCc1c(C)nn(-c2ccccc2)c1-n1cccc1 | inactive: -23.6%
COc1ccc(CNC(=O)c2cc3c(s2)-c2c(C)cccc2OC3)cc1 | inactive: -5.61%
CCOC(=O)N1CCC2(CC1)OC(=O)C(C)=C2C(=O)NCc1cccc(OC)c1 | inactive: -4.16%
Cn1c(=O)n(-c2cccc(Cl)c2)c(=O)c2sc3ccccc3c21 | inactive: -14.5%
Cc1cc(NC(=O)Cn2nc(C)n3cccc3c2=O)ccc1Br | inactive: -7.37%
CNC(=O)c1sc2ncccc2c1-n1cccc1 | inactive: -2.49%
CCCS(=O)(=O)N1CC(=O)N(c2ccccc2C)C(C)(C(=O)NC2CCCC2)C1 (configuration not stated) | inactive: 1.95%
Cc1cccc(-n2ncc(C(=O)NCc3ccccn3)c2C2CCN(C(=O)OC(C)(C)C)CC2)c1 | inactive: 12.5%
CCN1CCN(Cc2c(O)ccc3c(C)c(-c4ccccc4)c(=O)oc23)CC1 | inactive: -19.6%
CCCC(C(=O)OCCN(CC)CC)(c1ccccc1)c1ccccc1 | inactive: -24.2%
Cc1ccc(NC(=O)Cn2c(=O)n(CCC(=O)NCc3ccc4c(c3)OCO4)c(=O)c3sccc32)c(C)c1 | inactive: 5.34%
Cc1ccc(C)c(N2CCN(c3nc4ccccc4n4c(C)nnc34)CC2)c1 | inactive: -7.07%
Cc1ccc(NC(=O)C(c2ccccc2)N2Cc3ccccc3C2=O)cc1Cl (configuration not stated) | inactive: 3.45%

SMILES | activity change, negative = inhibition
CCN1CCN(C(c2ccc(F)cc2)c2c(O)cc(C)n(CCOC)c2=O)CC1 (configuration not stated) | inactive: -9%
CCc1cccc2c(-c3ccc(F)cc3)nc(SCC(=O)Nc3ccccc3)nc12 | inactive: -8.23%
CC(C)CCNC(=O)C1CCN(C(=O)N2CCOc3ccc(Cl)cc32)CC1 | inactive: -21.4%
COc1ccc(C(=O)Nc2ccc(-c3cc4ccccc4oc3=O)c(C)c2)cc1OC | inactive: -21.6%
CCOC(=O)c1c(C)[nH]c(C)c1S(=O)(=O)N1CCCC(C(=O)Nc2ccc(F)cc2F)C1 (configuration not stated) | inactive: -8%
O=C(NC1CCCCCC1)c1ccc2c(c1)sc1nc(-c3ccccc3)cn12 | inactive: 4.74%
COc1cc(C2CC(=O)N(c3ccccc3)C3=C2C(=O)OC3)cc(OC)c1OC (configuration not stated) | inactive: 0%
CCN1CCN(c2ncnc3c2cnn3-c2ccc(C)cc2)CC1 | inactive: 10.2%
C=C(C)CSc1nc2sc3c(c2c(=O)n1-c1ccccc1)CCC(C)C3 (configuration not stated) | inactive: -9.31% [at 11.5 µM]
COc1ccccc1CNc1ccc(-c2nc(-c3ccncc3)no2)cc1[N+](=O)[O-] | inactive: -9.39%
COc1ccc(CNC(=O)CC(c2ccc(OC)c(OC)c2)N2Cc3ccccc3C2=O)cc1 (configuration not stated) | inactive: -6.67%
CCOc1ccc(NC(=O)CSC2=Nc3ccccc3C3=NC(CC(=O)NCc4ccco4)C(=O)N23)cc1 (configuration not stated) | inactive: -13.9%
N#Cc1c[nH]n2c(NC3CCCC3)c(-c3cccc(Cl)c3)nc12 | inactive: -2.2%
CCOC(=O)c1sc2ncn(CC(=O)Nc3ccc(C)cc3Br)c(=O)c2c1C | inactive: -6.66%
COc1ccccc1-n1c(/C=C/c2c(C)n(C)c3ccccc23)nc2ccccc2c1=O | inactive: -21.7%
CCOc1ccc(OCC(=O)Nc2nnc3n2CCS3)cc1 | inactive: 2.7%
CCOc1ccc(Sc2cc(C(=O)NCCc3ccccc3)c3ccccc3n2)cc1 | inactive: -19.1%
COc1cccc(CNC(=O)C2CCC(CNS(=O)(=O)c3ccc(Br)s3)CC2)c1 (configuration not stated) | inactive: -9.02%
CCOC(=O)C(Cc1c[nH]c2ccccc12)NC(=O)COc1ccc(Cl)c(C)c1 (configuration not stated) | inactive: -8.55%
CCOc1nc(NC(=O)NS(=O)(=O)Oc2ccccc2)nc(-c2ccccc2)n1 | inactive: 38.5%
O=S(=O)(c1ccc2c(c1)CCN2)N1CCCCCC1 | inactive: 3.16%
CCc1ccc(NCc2cc3cc(OC)c(OC)cc3n(CC(=O)Nc3cc(C)ccc3C)c2=O)cc1 | inactive: -17.8%
CCC(C)OC(=O)/C(C#N)=C\c1ccc(-c2cccc(C(F)(F)F)c2)o1 (configuration not stated) | inactive: -26.1% [at 11.5 µM]
COc1ccc(S(=O)(=O)N(CC(=O)NCc2ccccc2)c2ccc(C)cc2)cc1OC | inactive: 62%
O=C(Cn1c(=O)nc(-c2ccccc2)c2ccccc21)NCc1ccc(F)cc1 | inactive: -9.26%

SMILES | activity change, negative = inhibition
Cc1cc(O)c(C(c2ccccc2)N2CCN(C)CC2)c(=O)n1Cc1ccco1 (configuration not stated) | inactive: -4.42%
O=C(Nc1ccccc1)N(Cc1ccc(F)cc1)c1ccccn1 | inactive: -7.48%
C=Cc1ccc(CN2C(=O)c3ccccc3Sc3ccc(C(=O)OCc4ccco4)cc32)cc1 | inactive: -28.6%
COc1ccc(-c2noc(CN(C(C)C)S(=O)(=O)c3ccc(Br)cc3)n2)cc1 | inactive: -13.7%
CC1=C(C(=O)N2CCN(c3cccc(C)c3C)CC2)C2(CCCCC2)OC1=O | inactive: -6.48%
Cc1cccc(NC2=CC(c3cccc(Br)c3)N(c3cccc(C)c3)C2=O)c1 (configuration not stated) | inactive: -8.31%
CCOC(=O)c1c(C)[nH]c(C)c1S(=O)(=O)NCC(=O)N1CCN(c2cccc(C)c2)C(C)C1 (configuration not stated) | inactive: -29.4%
Cc1ccc(CNC(=O)c2c(O)nc3c(C)cccn3c2=O)cc1 | inactive: -18.4%
CCN(CC)CCCNC(=O)c1ccc2c(c1)NC(=O)C(CS(=O)(=O)Cc1cccc(Br)c1)N2 (configuration not stated) | inactive: -14.2%
COc1ccc(Br)cc1CNC(=O)c1nn(-c2ccc(C)cc2)c(=O)c2c1c1ccccc1n2C | inactive: -17.4%
NC(=O)NO | inactive: 0.564%
Cc1ccccc1-c1noc(-c2cccnc2N(C)Cc2ccc(Cl)cc2)n1 | inactive: -21.3%
O=C(C1CC1)N1CCN(c2nc3c(Cl)cccc3s2)CC1 | inactive: -8.38%
CO/N=C1\CN(c2nc3c(cc2F)c(=O)c(C(=O)O)cn3C2CC2)CC1CN (configuration not stated) | inactive: 0.589%
COc1ccc(CCNC(=O)CSc2nnnn2-c2cccc(C(C)=O)c2)cc1OC | inactive: -2.38%
CCOC(=O)c1ccc(NC(=O)c2csnn2)cc1 | inactive: 50.2%
CC1CCN(S(=O)(=O)c2ccc3c(c2)N(CC(=O)NC(C)C)C(=O)CO3)CC1 | inactive: -13%
COc1cccc(CNC(=O)CSc2ncc(S(=O)(=O)c3ccc(Br)cc3)c(=O)[nH]2)c1 | inactive: -5.16%
COc1ccc(CNC(=O)CSc2ncc(S(=O)(=O)c3ccc(C)c(Cl)c3)c(=O)[nH]2)cc1 | inactive: -10.6%
CC1CCN(S(=O)(=O)c2ccc3c(c2)CCN3C(=O)Nc2ccc(Br)cc2)CC1 | inactive: 11.6%
Cc1ccccc1C(=O)N1CCN(CCc2ccccn2)CC1 | inactive: -10.6%
Cc1c(C(=O)Nc2ccc(C(C)C)cc2)sc2nc[nH]c(=O)c12 | inactive: 37.3%
